# Some compounds were tested as several samples or in several runs, with calls that do not always agree.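 Testing used 96-well plates and a 48-hour single-concentration exposure. Example: -40 means 40% of the starting cells died.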 Certain results were filed several times, with different values. They are shown here; other results are not. The source may hold further records. For part of these data: These are repeated runs of one drug, at the concentration stated with the values; one value stands for one run. Signs of the kind (2×) count equal records among those shown. Some values that stand alone complete this part of the results. The source made the active and inactive calls. The calls were made as follows: active = growth percent below 10; inactive = the rest.
# Columns and labels:
# [1] = system: HS 578T breast; assay: NCI-60 one-dose screen, 48 h (100 = growth as untreated, 0 = no growth, -100 = all killed); conditions: 25 µM
# [2] = system: NCI/ADR-RES ovarian; assay: as above; conditions: 0.25 µM
structure (smiles),measurement,setting,value
COc1cccc2c1C(=O)c1c(O)c3c(c(O)c1C2=O)C[C@@](O)(C(=O)CO)C[C@@H]3OC1CC(N)C(O)C(C)O1 (stereo not given in full),growth,[1]; runs of 1993,"active: -25.9, -44.2, -18.3, -44.1, -46.6, -19.5, -53.9, -29.7, -15.1 (2×), -33.8, -41.5, -39, -55.1, -28.4, -29.2, -32.3, -60.8, -43.3, -47, -51.3, -31.3, -38.4, -51.5, -56.6, -20.5, -59.9, -23.5, -54.2, -43, -39.9, -55, -38.1, -72.3, -58.8, 7.12, -42.4, -39.1, -37.1, -33.1, -13.4, -7.49, -19.9%"
same,growth,[1]; runs of 1994,"active: -47.8, -27.1, -31.9, -49.8, -24.4, -29.3, 9.43, -49.2, -60.4, -21, -35.9, -60.3, -29, -46.5, -29.8, -5.65, -36.8, -38.8, -45.8, -37, -42, -30.5, -29.9, -48.3, -28.4 (2×), -34.6, -18.5, -13.8%"
same,growth,[1]; runs of 1995,"active: -45.4, -30.6, -40.4, -38.1, -16.9, -9.48, -31.1, -25.5, -33.4, -30.5, -33, -18.5, -30.2, -32.2, -36.9, -44.7, -58.4, -41.3, -62.1, -67.6, -31.4, -36.8, -60.1, -9.24, -55.3, -29.5, -26.9, -54.5, -40, -56.8, -36.5, -22.6, -23.2, -28.8, -38.8% and inactive: 10.9%, 12%"
same,growth,[1]; runs of 1996,"active: -40.5, -44.4, -41.6, -31.4, -40.1, -21.2, -18.6, -26.2, -25.3, -19.8, -13.4, -31.3, -19.2, -22.1, -27.7, -42, -34.6, -6.85, -30.4, -52, -49.9, -55.9, -53.3, -41.1, -40.3 (2×), -49.5 (2×), -64.5, -44.8, -50.9, -32.2, -51.8, -53.2, -64, -43.9, -39.8, -48.6, -24.7, -27.9, -38.9, -33.2, -66, -50, -34.9, -11.1, -72.3, -46.6% and inactive: 94.5%, 90.8%"
same,growth,[1]; runs of 1997,"active: -5.26, 2.56, -44.6, -35.8, -34.7, -22.1, -29.2 (2×), -52.5, -38.4, -46.5, -47.9, -53.3, -38.2, -30.5, -31.8, -55.4, -40.1, -28.8, -32.6, -47.2, -27.6, -48.5, -34.5, -13.3, -32.1, -42.4, -21.2, -37.1, -36.9, -36.7, -33.5, -8.85, -47.5, -43.5, -8.98, -32.2, -76.7, -54.8%"
same,growth,[1]; runs of 1998,"active: -44.6, -65.6, -32.3, -13.6, -70.2, -56.9, -39.1, -19.1, -67.9, -25, -43.1, -48.7, -26.8% and inactive: 19.4%, 14.5%, 17.9%"
same,growth,[1]; runs of 1999,"active: -67.3, -29.6, -43.5, -60.9, -100 (2×), 1.07, -67, 3.27, -58.8, 2.49, -52.7, -48.1%"
same,growth,[1]; runs of 2000,active: -59.8%
same,growth,[2]; runs of 2006,"inactive: 96.3%, 100%"
same,growth,[2]; runs of 2007,"inactive: 85.7, 87.5, 104 (2×), 106 (3×), 99.2 (2×), 150, 89.3, 95, 98.6, 99, 86.7, 101 (2×), 103 (2×), 111, 117, 42.2, 96.2, 97 (2×), 105 (2×), 115, 90.5, 67.5, 37.5, 107 (2×), 126, 116, 94.7, 95.2, 96.5%"
same,growth,[2]; runs of 2008,"inactive: 94.6, 95.2, 104 (4×), 98.8, 100 (6×), 103 (2×), 93.4, 90.9, 97.7 (2×), 98.9, 99.6, 124, 94.7 (2×), 93.3 (2×), 99.7, 89.8, 112 (2×), 96.3, 97.3, 85, 117, 94.5, 110, 92.1, 92.3, 92.6, 96.4 (2×), 99.9, 88.5, 99.5, 98.2, 113, 105 (2×), 107, 98.1, 75.4%"
same,growth,[2]; runs of 2009,"inactive: 89.6, 91.9 (2×), 87.3 (2×), 97.8, 96.6 (2×), 111 (3×), 112, 104 (2×), 95.2, 98.4, 110, 103 (4×), 96.4, 97.4, 101 (2×), 86.9, 97.3, 92.1, 108, 95.8 (2×), 95.4, 115, 99.3, 88.5, 89.8, 95, 105 (2×), 89.2, 87, 96.3, 96.2, 94.5, 86.8, 98.1, 107 (2×), 99, 106 (3×), 97.2, 95.7, 97.1, 98.7, 96.5%"
same,growth,[2]; runs of 2010,"inactive: 105 (6×), 95.2 (2×), 99.1 (2×), 103 (6×), 100 (4×), 108 (2×), 97.6, 99, 106 (3×), 104 (6×), 91.8, 89.6, 101 (2×), 83.1, 85.4, 96.4, 98, 83.7, 98.7, 90.9, 98.6, 110%"
same,growth,[2]; runs of 2011,"inactive: 108, 105 (3×), 107 (3×), 103 (9×), 96, 98.7 (4×), 106 (4×), 104 (6×), 97.7, 99.7, 99.5, 94.4, 101 (3×), 97.8, 94.5, 95.4, 98.6, 95.6, 99.6 (2×), 100, 97.3, 94, 96.7%"
same,growth,[2]; runs of 2012,"inactive: 104 (4×), 97.4 (2×), 101 (9×), 105 (3×), 103 (4×), 109 (3×), 110 (6×), 98.8, 96.9, 106 (2×), 95.6, 100 (3×), 99.5, 107 (4×), 114, 93.9, 113 (3×), 112 (3×), 111 (5×), 108 (2×), 116, 93.4%"

# Source: PubChem BioAssay (NCI)
